# Experimental data from PubChem BioAssay AID504332 (National Center for Advancing Translational Sciences (NCATS), 2011).
# Out of some 350,000 compounds screened, about 31,000 (8.9%) were called active. The inconclusive results got no clear call from the source; some entries with a clear call stand among them for comparison. The call rests on the fitted dose curve; in most records, active means well fitted inhibition curve with a large enough effect; inconclusive means small, poorly fitted or top-dose-only effect; inactive means no such curve, though single readings can be large or run the other way. A potency beside an inconclusive call is a rough fit, not a confirmed value.
# Molecular target: Histone-lysine N-methyltransferase EHMT2 (Homo sapiens) (UniProt Q96KQ7)
# Assay: qHTS Assay for Inhibitors of Histone Lysine Methyltransferase G9a; further: nearly all actives have a fitted effect of over 75% in size
# Settings: G9a H3K9 monomethylation, AlphaScreen, 2 h; activity, negative = inhibition: at 59 µM (top of the series) unless noted
# Procedure, shortened: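 G9a (20 nM) was preincubated 15 min with compound, then reacted 2 h at room temperature with 500 nM biotin-H3K9 peptide and 20 µM SAM. Monomethyl-H3K9 detected by AlphaScreen using anti-H3K9me1 antibody.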
# On the % scale 0 is the no-effect control and ±100 the full control effect; potency means the concentration at half of the fitted maximal effect; tags describe the fitted curve by direction and shape.
# Sequence of UniProt Q96KQ7 (Q96KQ7 whole entry, looked up): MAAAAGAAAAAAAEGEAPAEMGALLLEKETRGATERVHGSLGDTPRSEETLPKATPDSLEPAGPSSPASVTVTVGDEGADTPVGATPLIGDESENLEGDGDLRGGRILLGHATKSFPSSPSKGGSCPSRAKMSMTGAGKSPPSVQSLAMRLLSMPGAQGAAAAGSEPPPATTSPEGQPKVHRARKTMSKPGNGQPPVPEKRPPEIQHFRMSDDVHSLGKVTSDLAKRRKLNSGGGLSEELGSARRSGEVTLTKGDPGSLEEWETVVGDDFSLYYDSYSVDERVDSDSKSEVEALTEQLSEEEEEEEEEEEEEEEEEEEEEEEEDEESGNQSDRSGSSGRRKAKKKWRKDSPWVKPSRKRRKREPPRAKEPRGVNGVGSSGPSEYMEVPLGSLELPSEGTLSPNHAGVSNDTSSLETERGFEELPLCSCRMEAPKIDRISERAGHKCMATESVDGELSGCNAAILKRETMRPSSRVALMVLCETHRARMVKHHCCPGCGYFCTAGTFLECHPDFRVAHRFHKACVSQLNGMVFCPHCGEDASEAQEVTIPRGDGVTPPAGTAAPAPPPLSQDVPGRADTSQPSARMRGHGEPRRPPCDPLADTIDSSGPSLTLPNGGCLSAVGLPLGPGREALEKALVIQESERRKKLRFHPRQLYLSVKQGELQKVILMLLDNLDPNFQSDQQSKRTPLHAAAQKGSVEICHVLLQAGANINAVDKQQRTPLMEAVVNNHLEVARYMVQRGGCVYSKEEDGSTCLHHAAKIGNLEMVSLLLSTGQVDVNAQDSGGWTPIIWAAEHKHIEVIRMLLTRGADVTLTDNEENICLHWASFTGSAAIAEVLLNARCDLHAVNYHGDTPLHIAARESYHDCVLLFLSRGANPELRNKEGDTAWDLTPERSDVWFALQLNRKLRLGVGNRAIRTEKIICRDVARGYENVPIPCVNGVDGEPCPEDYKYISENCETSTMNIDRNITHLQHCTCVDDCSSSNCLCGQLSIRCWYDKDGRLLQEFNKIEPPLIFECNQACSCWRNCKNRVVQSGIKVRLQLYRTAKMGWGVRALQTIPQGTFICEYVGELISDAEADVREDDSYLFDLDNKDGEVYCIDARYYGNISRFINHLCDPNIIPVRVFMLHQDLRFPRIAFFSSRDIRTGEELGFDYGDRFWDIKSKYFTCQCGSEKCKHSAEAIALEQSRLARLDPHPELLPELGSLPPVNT
SMILES,Potency,"activity, negative = inhibition"
COc1ccc(CNC(=O)CC2C(=O)NCCN2C2Cc3ccccc3C2)cc1 (stereo unspecified),"inconclusive: 35.5 µM [inhibitor, partial curve]",–
Cc1nc(NN)c2c3c(sc2n1)COC(C)(C)C3,–,inactive: -7.16% [at 2.33 µM]
Cc1nn(-c2ccc(F)cc2)c(-n2cccc2)c1C(=O)NCCCN1CCN(c2cccc(Cl)c2)CC1,"inconclusive: 7.94 µM [inhibitor, full curve]",–
CSc1ccccc1C(=O)C1CCCN(Cc2cnn(-c3ccccc3)c2)C1 (stereo unspecified),"inconclusive: 7.08 µM [inhibitor, partial curve]",–
CCN(CC)c1ccc(CNC(=O)C/C(C)=N/NC(=O)COc2ccc(C)cc2Br)cc1,"inconclusive: 44.7 µM [inhibitor, partial curve, poor fit]",–
Cn1c(=O)n(C)c2cc([N+](=O)[O-])c(N3CCN(S(=O)(=O)c4ccccc4)CC3)cc21,"inconclusive: 70.8 µM [inhibitor, single point]",–
O=C1C2C3C=CC(C3)C2C(=O)N1c1ncn[nH]1 (stereo unspecified),"inconclusive: 79.4 µM [inhibitor, single point]",–
O=C(NCc1cccnc1)C(=O)NCC(c1cccnc1)N1CCN(c2ccccc2F)CC1 (stereo unspecified),–,inactive: -26.4%
CCCOC(=O)/C(=C\C=C\c1ccco1)NC(=O)c1ccccc1,active: 20 µM,–
COc1ccc(NC(=O)Cn2c(C)cc(=O)c3ccccc32)cc1,–,inactive: 16.9% [at 102 µM]
Cc1cccc(C)c1NC(=O)CN(C)C(=O)c1cccc(S(=O)(=O)N2CCN(C)CC2)c1,"inconclusive: 44.7 µM [inhibitor, partial curve, poor fit]",–
O=C1S/C(=C/c2ccc(N3CCOCC3)o2)C(=O)N1Cc1c(F)cccc1Cl,active: 1.78 µM,–
C#CCOCCOCCOCCNc1nc(N2CCN(C(=O)C([C@@H](C)CC)n3cc(C(N)Cc4ccc(O)cc4)nn3)CC2)nc(N2CCN(C(=O)[C@H](CCC(=O)O)n3cc(C(N)Cc4ccc(O)cc4)nn3)CC2)n1 (stereo partly specified),–,inconclusive: -97.7% [inhibitor]
COc1ccc(Cc2[nH]n3c(=O)cc(C(C)C)nc3c2-c2ccccc2)cc1,–,inactive: -28.4% [at 102 µM]
COCCNC(=O)c1nc2c(nnn2Cc2cc(C)ccc2C)c(=O)[nH]1,active: 11.2 µM,–
COc1ccc(NC(=O)C(c2ccccc2)c2ccccc2)cn1,–,inactive: -2.65% [at 102 µM]
Cc1ccc(-c2cc(NC(=O)COc3ccc(Cl)c(C)c3)on2)cc1,"inconclusive: 39.8 µM [inhibitor, single point]",–
CCc1nnc(NC(=O)CSc2nnnn2C)s1,"inconclusive: 39.8 µM [inhibitor, single point]",–
CCOc1ccccc1CNCCNCC(C)O (stereo unspecified),"inconclusive: 31.6 µM [inhibitor, single point]",–
COc1cc(/C=N/NC(=O)c2ccc(NS(=O)(=O)c3cccs3)cc2)cc(OC)c1O,"inconclusive: 3.16 µM [inhibitor, single point]",–
Cc1ccc(C(=O)Nc2ccc(C(=O)N/N=C/c3ccncc3)cc2)cc1,active: 31.6 µM,–
COc1ccc(N/C(C)=C/C(=O)c2ccccc2)cc1,"inconclusive: 31.6 µM [inhibitor, single point]",–
CCOC(=O)c1cccc(NC(=O)c2cn(-c3cccc(OC)c3)c(=O)c3ccccc23)c1,active: 10 µM,–
COc1ccc(N2CCN(C(=O)C3CCN(S(=O)(=O)c4ccc(C)cc4)CC3)CC2)cc1,–,inconclusive: -99% [inhibitor]

SMILES,Potency,"activity, negative = inhibition"
COC(=O)CC1C(=O)NCCN1C(=O)Nc1ccccc1 (stereo unspecified),–,inactive: 52.3% [at 102 µM]
CC(=O)c1ccc(N=C2C(=O)Nc3ccccc32)cc1,"inconclusive: 56.2 µM [inhibitor, single point]",–
O=[N+]([O-])c1cccc(C(=Nc2ccccc2)NO)c1,"inconclusive: 39.8 µM [inhibitor, single point]",–
COC(=O)c1ccc(=O)c2nc3/c(=C/O)c(O)cc(=O)c3[nH]c12,active: 0.794 µM,–
Cc1ccc(NC(=O)CCNC(=O)c2ccco2)cc1Cl,–,inactive: 15% [at 102 µM]
CN(C)C(=O)CSc1nc(-c2cccs2)c(-c2cccs2)[nH]1,"inconclusive: 79.4 µM [inhibitor, single point]",–
O=C(NCc1cccs1)c1cccnc1C(=O)O,"inconclusive: 7.08 µM [inhibitor, full curve, poor fit]",–
COc1ccc(NC(=O)CS(=O)CC(=O)Nc2cccc3cccnc23)cc1 (stereo unspecified),–,inactive: 5.31% [at 102 µM]
COc1ccccc1C1/C(=C(/O)c2ccccc2)C(=O)C(=O)N1CC(C)C (stereo unspecified),"inconclusive: 100 µM [inhibitor, single point]",–
COc1ccc(NS(=O)(=O)c2ccc(NS(=O)(=O)c3ccc(SC)cc3)cc2)c(OC)c1,"inconclusive: 1.78 µM [inhibitor, partial curve, poor fit]",–
O=C(NNC(=O)C1CCC1)c1ccccc1F,–,inactive: 0.411% [at 102 µM]
CC(=O)c1c(C)[nH]c(C(=O)NCCC2=CCCCC2)c1C,"inconclusive: 79.4 µM [inhibitor, single point]",–
Cc1ccc(-n2c(SCC(=O)NCc3ccccc3)nc3n[nH]c(C)c3c2=N)cc1Cl,–,inactive: -21.6%
O=C(NC(=S)Nc1cc(Cl)ccc1N1CCOCC1)c1ccc(-c2cccc(Cl)c2)o1,–,inactive: 13%
CN1C2CCC1CC(NC(=O)c1nn(C)c3ccccc13)C2 (stereo unspecified),–,inactive: 15.2% [at 12.7 µM]
COc1ccc(S(=O)(=O)Nc2nc3ccccc3nc2Nc2cccc(C(=O)O)c2)cc1,active: 44.7 µM,–
O=C(CSc1ccc2nnc(-c3ccccc3)n2n1)NCc1ccco1,"inconclusive: 22.4 µM [inhibitor, single point]",–
CCc1noc(C)c1C(=O)N1CCN(c2cccc(C)c2C)CC1,"inconclusive: 89.1 µM [inhibitor, partial curve, poor fit]",–
CC(C)(C)OC(=O)N1CCC(c2cc(=O)n3[nH]cc(C(=O)Nc4ccc(F)c(Cl)c4)c3n2)CC1,–,inactive: -41.7% [at 102 µM]
O=[N+]([O-])c1cccc(NC(=S)Nc2nc(-c3ccccc3Cl)cs2)c1,"inconclusive: 50.1 µM [inhibitor, partial curve, poor fit]",–
COc1cccc(NC(=O)CSC2=C(C#N)C(c3ccco3)C3=C(CCCC3=O)N2)c1 (stereo unspecified),–,inconclusive: -72% [inhibitor]
CC1CCN(c2oc(-c3ccc(COc4ccccc4)o3)nc2C#N)CC1,active: 5.01 µM,–
COCCn1c(SCc2ccc(C(=O)OC)o2)nc2ccccc2c1=O,"inconclusive: 44.7 µM [inhibitor, partial curve]",–
C=CCN(CC=C)CCCOc1ccc(Br)cc1Cl,–,inactive: 21.6% [at 102 µM]

SMILES,Potency,"activity, negative = inhibition"
COc1ccc(-n2c(=O)c3ccccc3n(CC(=O)OCc3ccccc3)c2=O)cc1OC,–,inactive: -32.6% [at 102 µM]
CCCC(=O)Nc1nnc(S(=O)(=O)N(CC(C)C)c2ccccc2)s1,"inconclusive: 0.631 µM [inhibitor, full curve]",–
CCOc1ccc(NC(=O)CCCn2c(=S)[nH]c3ccsc3c2=O)cc1,"inconclusive: 11.2 µM [inhibitor, full curve]",–
Cc1ccc(-c2nc3nc(C)cc(C)n3c2Nc2ccc3c(c2)OCCO3)cc1,"inconclusive: 39.8 µM [inhibitor, single point]",–
CC(C)c1cnc2c(c1SCc1cccc(F)c1)c(=O)n(C)c(=O)n2C,–,inactive: -41%
Cc1noc(C)c1C(=O)Nc1ccc(S(=O)(=O)N2CCC(C)CC2)cc1,active: 22.4 µM,–
CN(Cc1cnn(C)c1)C(=O)C1CCCCC1C(=O)O (stereo unspecified),"inconclusive: 25.1 µM [inhibitor, single point]",–
COc1cc(OC)c(OC)cc1/C=N/NC(=O)CSc1ccccc1F,–,inactive: 1.89% [at 102 µM]
CN(C)C(=S)SCC(=O)NC(=O)NC(C)(C)C,–,inactive: 1.97% [at 102 µM]
CCOC(=O)CC1C(=O)NCCN1S(=O)(=O)c1ccc(OC)cc1 (stereo unspecified),–,inactive: 8.37% [at 102 µM]
CNC(=O)NC(=O)COC(=O)c1ccc(-n2c(C)ccc2C)cc1,"inconclusive: 79.4 µM [inhibitor, single point]",–
COc1cc(NC(=O)C2CCN(S(=O)(=O)c3ccc4c(c3)oc(=O)n4C)CC2)cc(OC)c1,–,inactive: 5.03%
CC1=C(C(=O)OCc2ccc([N+](=O)[O-])cc2)N2C(=O)C(NC(=O)Cc3ccccc3)C2SC1 (stereo unspecified),"inconclusive: 79.4 µM [inhibitor, single point]",–
CCN1CCN(C2=C(Cl)C(=O)N(Cc3ccccc3)C2=O)CC1,"inconclusive: 1.12 µM [inhibitor, partial curve, poor fit]",–
CCOC(=O)c1sc(=S)n(C)c1NC(=O)c1cccc(Br)c1,active: 10 µM,–
COc1cccc(CNC(=O)CCS(=O)(=O)c2ccc3c(c2)NC(=O)C(C)S3)c1 (stereo unspecified),"inconclusive: 89.1 µM [inhibitor, single point]",–
O=S(=O)(c1ccccc1)N1N=C(c2ccc(Cl)cc2)CC1c1ccco1 (stereo unspecified),active: 44.7 µM,–
Cc1ccc(N/C=C2\CCCCC2=O)c(C)c1,"inconclusive: 89.1 µM [inhibitor, single point]",–
Cc1cc(C(=O)CCl)c(C)n1CC1COc2ccccc2O1 (stereo unspecified),"inconclusive: 79.4 µM [inhibitor, single point]",–
C/C(=N\NC(=O)c1ccc(C)cc1C)c1ccc2c(c1)Nc1ccccc1S2,"inconclusive: 20 µM [inhibitor, single point]",–
CCC(C(=O)OCC(=O)c1ccc2c(c1)NC(=O)CO2)c1ccccc1 (stereo unspecified),"inconclusive: 50.1 µM [inhibitor, partial curve, poor fit]",–
COC(=O)c1ccc(CSc2nnc3nc(C)cc(C)n23)cc1,"inconclusive: 35.5 µM [inhibitor, partial curve, poor fit]",–
COc1cccc(-n2c(=O)[nH]cc(C(=O)Nc3ccc(NC(C)=O)cc3)c2=O)c1,active: 44.7 µM,–
